Some of the results follow. Repeats are few or missing, and single values can be far off.

This assay has as its system Bacillus subtilis 168 spores. The experiment in a line: spore germination/outgrowth inhibition class (0 mild or none, 1 inhibitory, 3 highly inhibitory, 4 no outgrowth, 5 no germination) (ordinal class code); higher = stronger inhibition of spore germination/outgrowth. The note with it: 100 µg/ml; pH 7.4; 8 h. The procedure: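 Heat-activated Bacillus subtilis 168 spores (OD595 0.2) in TSB with AGFK germinants, buffered with 80 mM MOPS at pH 7.4, were exposed to 100 µg/ml compound (Pyxis Discovery library, catalogue IDs). OD595 was followed for 8 h at 37 °C in a plate reader. Each compound was assigned an ordinal inhibition class: 0 mild/no inhibition (reached 2x initial OD within 2-3 h), 1 inhibitory (3-6 h), 3 highly inhibitory (6-8 h), 4 no outgrowth within 8 h, 5 no germination (no OD decline).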
`COc1cc(N)ccc1-c1ccc(N)cc1OC`: the “spore germination/outgrowth inhibition class” value was inactive: 0.

`O=C1C(=O)c2ccccc2-c2ccccc21`: the “spore germination/outgrowth inhibition class” value is active: 3.

The values above are taken from the supplement of paper PMC6002552.
